Results reported in the supplement of paper PMC12423691.
The other results are listed elsewhere or left out. Binding of human transcription factors and regulators to the viral nucleoprotein by AlphaScreen, crude cell-free proteins, amounts not normalised, one pass. Fold of the Venus control; higher = more signal. No active / inactive call. Single-pass screen; sequences are the whole Swiss-Prot entries looked up by name.

B1: PELI1, Q96FA3 (protein)
chain: MFSPDQENHPSKAPVKYGELIVLGYNGSLPNGDRGRRKSRFALFKRPKANGVKPSTVHIACTPQAAKAISNKDQHSISYTLSRAQTVVVEYTHDSNTDMFQIGRSTESPIDFVVTDTVPGSQSNSDTQSVQSTISRFACRIICERNPPFTARIYAAGFDSSKNIFLGEKAAKWKTSDGQMDGLTTNGVLVMHPRNGFTEDSKPGIWREISVCGNVFSLRETRSAQQRGKMVEIETNQLQDGSLIDLCGATLLWRTAEGLSHTPTVKHLEALRQEINAARPQCPVGFNTLAFPSMKRKDVVDEKQPWVYLNCGHVHGYHNWGNKEERDGKDRECPMCRSVGPYVPLWLGCEAGFYVDAGPPTHAFSPCGHVCSEKTTAYWSQIPLPHGTHTFHAACPFCAHQLAGEQGYIRLIFQGPLD
B2: ICAM1, P05362 (protein)
chain: MAPSSPRPALPALLVLLGALFPGPGNAQTSVSPSKVILPRGGSVLVTCSTSCDQPKLLGIETPLPKKELLLPGNNRKVYELSNVQEDSQPMCYSNCPDGQSTAKTFLTVYWTPERVELAPLPSWQPVGKNLTLRCQVEGGAPRANLTVVLLRGEKELKREPAVGEPAEVTTTVLVRRDHHGANFSCRTELDLRPQGLELFENTSAPYQLQTFVLPATPPQLVSPRVLEVDTQGTVVCSLDGLFPVSEAQVHLALGDQRLNPTVTYGNDSFSAKASVSVTAEDEGTQRLTCAVILGNQSQETLQTVTIYSFPAPNVILTKPEVSEGTEVTVKCEAHPRAKVTLNGVPAQPLGPRAQLLLKATPEDNGRSFSCSATLEVAGQLIHKNQTRELRVLYGPRLDERDCPGNWTWPENSQQTPMCQAWGNPLPELKCLKDGTFPLPIGESVTVTRDLEGTYLCRARSTQGEVTRKVTVNVLSPRYEIVIITVVAAAVIMGTAGLSTYLYNRQRKIKKYRLQQAQKGTPMKPNTQATPP
B3: KDM5B, Q9UGL1 (protein)
chain: MEAATTLHPGPRPALPLGGPGPLGEFLPPPECPVFEPSWEEFADPFAFIHKIRPIAEQTGICKVRPPPDWQPPFACDVDKLHFTPRIQRLNELEAQTRVKLNFLDQIAKYWELQGSTLKIPHVERKILDLFQLNKLVAEEGGFAVVCKDRKWTKIATKMGFAPGKAVGSHIRGHYERILNPYNLFLSGDSLRCLQKPNLTTDTKDKEYKPHDIPQRQSVQPSETCPPARRAKRMRAEAMNIKIEPEETTEARTHNLRRRMGCPTPKCENEKEMKSSIKQEPIERKDYIVENEKEKPKSRSKKATNAVDLYVCLLCGSGNDEDRLLLCDGCDDSYHTFCLIPPLHDVPKGDWRCPKCLAQECSKPQEAFGFEQAARDYTLRTFGEMADAFKSDYFNMPVHMVPTELVEKEFWRLVSTIEEDVTVEYGADIASKEFGSGFPVRDGKIKLSPEEEEYLDSGWNLNNMPVMEQSVLAHITADICGMKLPWLYVGMCFSSFCWHIEDHWSYSINYLHWGEPKTWYGVPGYAAEQLENVMKKLAPELFVSQPDLLHQLVTIMNPNTLMTHEVPVYRTNQCAGEFVITFPRAYHSGFNQGFNFAEAVNFCTVDWLPLGRQCVEHYRLLHRYCVFSHDEMICKMASKADVLDVVVASTVQKDMAIMIEDEKALRETVRKLGVIDSERMDFELLPDDERQCVKCKTTCFMSAISCSCKPGLLVCLHHVKELCSCPPYKYKLRYRYTLDDLYPMMNALKLRAESYNEWALNVNEALEAKINKKKSLVSFKALIEESEMKKFPDNDLLRHLRLVTQDAEKCASVAQQLLNGKRQTRYRSGGGKSQNQLTVNELRQFVTQLYALPCVLSQTPLLKDLLNRVEDFQQHSQKLLSEETPSAAELQDLLDVSFEFDVELPQLAEMRIRLEQARWLEEVQQACLDPSSLTLDDMRRLIDLGVGLAPYSAVEKAMARLQELLTVSEHWDDKAKSLLKARPRHSLNSLATAVKEIEEIPAYLPNGAALKDSVQRARDWLQDVEGLQAGGRVPVLDTLIELVTRGRSIPVHLNSLPRLETLVAEVQAWKECAVNTFLTENSPYSLLEVLCPRCDIGLLGLKRKQRKLKEPLPNGKKKSTKLESLSDLERALTESKETASAMATLGEARLREMEALQSLRLANEGKLLSPLQDVDIKICLCQKAPAAPMIQCELCRDAFHTSCVAVPSISQGLRIWLCPHCRRSEKPPLEKILPLLASLQRIRVRLPEGDALRYMIERTVNWQHRAQQLLSSGNLKFVQDRVGSGLLYSRWQASAGQVSDTNKVSQPPGTTSFSLPDDWDNRTSYLHSPFSTGRSCIPLHGVSPEVNELLMEAQLLQVSLPEIQELYQTLLAKPSPAQQTDRSSPVRPSSEKNDCCRGKRDGINSLERKLKRRLEREGLSSERWERVKKMRTPKKKKIKLSHPKDMNNFKLERERSYELVRSAETHSLPSDTSYSEQEDSEDEDAICPAVSCLQPEGDEVDWVQCDGSCNQWFHQVCVGVSPEMAEKEDYICVRCTVKDAPSRK
B4: BARHL1, Q9BZE3 (protein)
chain: MEGSNGFGIDSILSHRAGSPALPKGDPLLGDCRSPLELSPRSESSSDCSSPASPGRDCLETGTPRPGGASGPGLDSHLQPGQLSAPAQSRTVTSSFLIRDILADCKPLAACAPYSSSGQPAAPEPGGRLAAKAAEDFRDKLDKSGSNASSDSEYKVKEEGDREISSSRDSPPVRLKKPRKARTAFTDHQLAQLERSFERQKYLSVQDRMELAASLNLTDTQVKTWYQNRRTKWKRQTAVGLELLAEAGNYSALQRMFPSPYFYPQSLVSNLDPGAALYLYRGPSAPPPALQRPLVPRILIHGLQGASEPPPPLPPLAGVLPRAAQPR
B5: TP73, O15350 (protein)
chain: MAQSTATSPDGGTTFEHLWSSLEPDSTYFDLPQSSRGNNEVVGGTDSSMDVFHLEGMTTSVMAQFNLLSSTMDQMSSRAASASPYTPEHAASVPTHSPYAQPSSTFDTMSPAPVIPSNTDYPGPHHFEVTFQQSSTAKSATWTYSPLLKKLYCQIAKTCPIQIKVSTPPPPGTAIRAMPVYKKAEHVTDVVKRCPNHELGRDFNEGQSAPASHLIRVEGNNLSQYVDDPVTGRQSVVVPYEPPQVGTEFTTILYNFMCNSSCVGGMNRRPILIIITLEMRDGQVLGRRSFEGRICACPGRDRKADEDHYREQQALNESSAKNGAASKRAFKQSPPAVPALGAGVKKRRHGDEDTYYLQVRGRENFEILMKLKESLELMELVPQPLVDSYRQQQQLLQRPSHLQPPSYGPVLSPMNKVHGGMNKLPSVNQLVGQPPPHSSAATPNLGPVGPGMLNNHGHAVPANGEMSSSHSAQSMVSGSHCTPPPPYHADPSLVSFLTGLGCPNCIEYFTSQGLQSIYHLQNLTIEDLGALKIPEQYRMTIWRGLQDLKQGHDYSTAQQLLRSSNAATISIGGSGELQRQRVMEAVHFRVRHTITIPNRGGPGGGPDEWADFGFDLPDCKARKQPIKEEFTEAEIH

What follows are binders tested against nucleoprotein N of Crimean-Congo hemorrhagic fever virus (assay: AlphaScreen luminescence signal relative to Venus negative control (fold); higher = stronger binding to CCHFV N).
Protocol: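 AlphaScreen binding of cell-free made, FLAG-GST-tagged human transcription factors and regulators (crude translation products) to biotinylated N protein; signal as fold of the FLAG-GST-Venus control. One pass.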

Binder | AlphaScreen luminescence signal
B1 | 2.28
B2 | 2.37
B3 | 3.49
B4 | 3.12
B5 | 1.44
